# Experimental data from article PMC12136788.
# Some of the results follow.
# T1: UNK ZnF1-3 (human, UniProt Q9C0B0 31-174)
# T1 sequence: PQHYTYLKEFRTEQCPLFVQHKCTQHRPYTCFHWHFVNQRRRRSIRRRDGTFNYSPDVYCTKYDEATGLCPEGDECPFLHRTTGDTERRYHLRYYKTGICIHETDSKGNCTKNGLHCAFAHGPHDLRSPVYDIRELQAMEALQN
# B1: chr12:53620312:53620313:+_ENSMUSG00000035133_ENSMUST00000110725|mus_mus|motif|central (ssRNA)
# RNA: GGGAGUUCUACAGUCCGACGAUCAGGUUUAAUAGGUGGAGGCACUUUAUGGUUACGUUCAUGAUCGUGACAAUUUGGAGUGCGGUGAACAGGAUACUCAUUUCCUUCCAAAUCUAACCUGUAUCUGGAACGGUCACUAGGUGUCAACAGAGGAUUGAGCAUCA
# B2: chr10:80930753:80930754:-_ENSMUSG00000034818_ENSMUST00000145375|mus_hu|FALSE|FALSE (ssRNA)
# RNA: GGGAGUUCUACAGUCCGACGAUCGGUGGACAGGACUGUUGUCUGCUGUUGCAUGAGAGCCUGGGCGUAGGCACUGUAGGGGCUGAAGGGCAAUGUGAGGGACGGCGUCAGGAUGCCCAGCUGGCCCACCAUCUGCUGCAUGCGCAACAGAGGAUUGAGCAUCA
# B3: chr11:74490848:74490849:-_ENSMUSG00000020745_ENSMUST00000021091|mus_hu|motif|central (ssRNA)
# RNA: GGGAGUUCUACAGUCCGACGAUCACAGAUAGCAGAAAGAAAAACAGGAAUUAAUAAUCCAACAUAAAAUGACACUGUCAACGGUUCAGUUUAGUGCCCUAGUUCAAUUGAUUCAACUUCUGCCUUCUUAGGCCUGGUGUGACCCAACAGAGGAUUGAGCAUCA
# B4: 32387816_32387936_4361_3pUTR_ENSMUSG00000053774_ENSMUST00000115151|mouse|control|control (ssRNA)
# RNA: GGGAGUUCUACAGUCCGACGAUCACUGAACACGCUGUAUAAAUUCUAGUUUUCUUCCACAUUUAUAAAUGAGUAGAAGGCAUAUAUACUGUGUAGGGACGGUAUGAAGACUGAAGGAGGAAACACACACAGAGUACACACCACCAACAGAGGAUUGAGCAUCA
# B5: chr9:66794652:66794653:+_ENSMUSG00000036781_ENSMUST00000040917|mus_hu|FALSE|FALSE (ssRNA)
# RNA: GGGAGUUCUACAGUCCGACGAUCUUGUACUAGGCGUUUCUUUUUAUGUUUUUUCUUUUCCUCUUCCAAGGACGGAUGUAGUAAAUCUCUAGCCAACAGAGAGAUUAUGAAAGAGGCUCGUAUCCUUUUGGCUUCCCUUUUCAACAACAGAGGAUUGAGCAUCA
# B6: chr7:135612270:135612271:-_ENSG00000105887_ENST00000393085|hu_mus|hu_hu_hu_mus_False|1_108 (ssRNA)
# RNA: GGGAGUUCUACAGUCCGACGAUCGUUUCUGAGAUGUAUGUUAAAUAGUACUUCAGUGGAAAACAAAACUUAACCUUUUAUUAAUGCGUGUUGUACCAAAAGCAGACAUUUUAGCUUCAUUUAUUCAAAAAUAUUAAGAACAUUCAACAGAGGAUUGAGCAUCA
# B7: chr1:163116895:163116896:-_ENSG00000143248_ENST00000313961|hu_mus|FALSE|FALSE (ssRNA)
# RNA: GGGAGUUCUACAGUCCGACGAUCACAGACAGCUUUAUGUUAAACUGGAUAUUUUUGUGACUUAGACUGACAAUGACUUGGUAAAUCUUUAUUACAAAGCAGUCAGAAAGAACCAAAAAAAAGAAAAAAAAAAGAAAAAGAAAACAACAGAGGAUUGAGCAUCA
# B8: chr1:163116895:163116896:-_ENSG00000143248_ENST00000313961|hu_hu|FALSE|FALSE (ssRNA)
# RNA: GGGAGUUCUACAGUCCGACGAUCUCUUUGCCUUAGGCAGGAUUUUUCUGUGAUUCUGAUUGUGUCUGACUACAAGCUGAAGAUAUCUUAAUUAAUAACAGGGCAGGAAGAAUUGAGUGGGGAAAGAAGGCCUUCGGACAGUAGCAACAGAGGAUUGAGCAUCA
# B9: chr12:48362563:48362564:+_ENSG00000134291_ENST00000256686|hu_hu|hu_hu_hu_mus_False|28_68 (ssRNA)
# RNA: GGGAGUUCUACAGUCCGACGAUCUCCGUCAAGCCCUUCGAUAGACCCUUGCGGGGGAAACUGUAAUAAUUCUAACUGGGGAAGGAAAAGAAACGCCAAAAACUUUCUUUCUUUCUUGGGUGGGGUGAGGCGGGAGGGGGAGGUCAACAGAGGAUUGAGCAUCA
# B10: chr1:84720644:84720645:-_ENSMUSG00000026219_ENSMUST00000027421|mus_mus|motif|central (ssRNA)
# RNA: GGGAGUUCUACAGUCCGACGAUCAUGAAUUUUAGAUUGUAUCUCAAUUUGAAUGAACACAGGAUGACAAGGCCUGGGGCGGAUGAAACUGUACGUGUUGUAUUUAAAAAGUAAAACAAACAAACAAAAACCAAACACCAAACCCAACAGAGGAUUGAGCAUCA
# B11: chr7:151048522:151048523:+_ENSG00000013374_ENST00000566856|hu_mus|hu_hu_hu_mus_True|38_68 (ssRNA)
# RNA: GGGAGUUCUACAGUCCGACGAUCCUGUUUCUUAUUUAUUACGAUCUUGAUGUAAUUUUCUUGAAAUCCAAAGGUUUCAGCUAUUUGACACCUCAGGUCUCUGCCAGUGACAUGCAAGCGGGUCUCCAACAAGCUUUUCUUAUCCAACAGAGGAUUGAGCAUCA
# B12: chr10:57939204:57939205:+_ENSMUSG00000003226_ENSMUST00000003310|mus_hu|FALSE|FALSE (ssRNA)
# RNA: GGGAGUUCUACAGUCCGACGAUCAGAUGGCCUUAAUCCUUCACCCGGCAUGGGCUGAACAAAAUUAGUUUUCCCAAAUUCUAUAGUCUUAGAUUCUGCAGAUCUUGAAGCAUGAGCUGCAAUCGGAGGUUUUGUGAAAUAUCCCAACAGAGGAUUGAGCAUCA
# B13: chrX:103217195:103217196:+_ENSMUSG00000031231_ENSMUST00000033582|mus_mus|FALSE|FALSE (ssRNA)
# RNA: GGGAGUUCUACAGUCCGACGAUCAUAGUAUAAUGAGUACAUGAUUCUUUGACUUGGCAUUCACUUAUAAGUUGGUUUUAAACAAUUCCUUGAUUAUUGUACCAGCUGGCACGACUACUGAUCUCUCCAUUCCUUUGGGGUGACCAACAGAGGAUUGAGCAUCA
# B14: chr10:116622662:116622663:+_ENSG00000151553_ENST00000369248|hu_hu|motif|central (ssRNA)
# RNA: GGGAGUUCUACAGUCCGACGAUCGAUAGGUGUAAAACAAGCCUCUAUGCACAUGCCACACAAUGCGUAUAUGCAAACAUGCGGCAUAAAAUAACUUCCUAGAGGGGGUAGUGACAGUUCCCUUCAAGCCGGAACCUUUGAUAGCAACAGAGGAUUGAGCAUCA
# B15: 3493990_3496593_1226_3pUTR_ENSMUSG00000024908_ENSMUST00000113997|mouse|control|control (ssRNA)
# RNA: GGGAGUUCUACAGUCCGACGAUCCCCCACAGGUGGGUCCAAUAUACCCCAUGUAGUCUUCAUCACACUUUUCUUGGGUGGCUCGAGUAGGAGUUCAUGGAAAGAUCCAAGUCUUCCUCGGAUGGCUUCAAGAACACUCUUGUUCAACAGAGGAUUGAGCAUCA
# B16: chr4:57314706:57314707:+_ENSG00000128050_ENST00000264221|hu_mus|hu_hu_hu_mus_True|1_1 (ssRNA)
# RNA: GGGAGUUCUACAGUCCGACGAUCCAGAAUUUCAAAAAUAGCUUGUGUGGCAUGACUCAUGAUGUCCACUUCAGUCUGCCCUAUAACAAGGCCAGCAAAACAGAAUUUUGCAGCAAUGAGUUGCUCCUCAGACCACUGUGGGUCCAACAGAGGAUUGAGCAUCA
# B17: 88537602_88537722_2479_CDS_ENSMUSG00000022387_ENSMUST00000109381|mouse|control|control (ssRNA)
# RNA: GGGAGUUCUACAGUCCGACGAUCCCGUUUACUCCGUGAGCCGCUGGACUUCAUGGAGCAGGUCAGGUCCAACUUGUCCAGAAGUUCUCUCAGCUGCUCCUCCAAGCUCAUGUGGGCCCUGUUGGCUGGGUCCAGCAACCUGUCCAACAGAGGAUUGAGCAUCA
# B18: 139358046_139358922_4529_CDS_ENSG00000148396_ENST00000313050|human|control|control (ssRNA)
# RNA: GGGAGUUCUACAGUCCGACGAUCGUCGUCUUUGGCCAGGGGUCCCGGGAACGCCCGCAUCUCCUCCUGCUCAGACGUGUGCUGCAGCAAGGCCUCCAUGCUGUGGACCUCCACCAAGGCCGGCUGUCCUUCUGAAGGCAGAUUCAACAGAGGAUUGAGCAUCA
# B19: chr19:16212804:16212805:+_ENSG00000167460_ENST00000300933|hu_mus|hu_hu_hu_mus_False|1_1 (ssRNA)
# RNA: GGGAGUUCUACAGUCCGACGAUCAACAAUUCUGGAGUGAAGGAAAGAUGUAACAUGGAACAGCAUUAAAGCUCAGUCAGAAGGCACAUGGGCAACAAUGAUCACCCCAGCAUUCUCGCUUGGAAUGCUUAAAGACAGAUGUUUCAACAGAGGAUUGAGCAUCA
# B20: chr16:94651144:94651145:+_ENSMUSG00000040785_ENSMUST00000117648|mus_hu|mus_mus_mus_hu_True|18_28 (ssRNA)
# RNA: GGGAGUUCUACAGUCCGACGAUCAUUUUCUUGAAUCAAGUGGCGAAUAACAUAGUCCACUGCUUCAUUUAGAAAAUUUCUGCUAGAAAAACAGGUUGUAUAGUCUUCCGUGCUCAGAACCUUCCAAGAAAGCAAUUCUUUGAGCAACAGAGGAUUGAGCAUCA
# B21: chr1:120503909:120503910:+_ENSMUSG00000064302_ENSMUST00000049404|mus_mus|motif|central (ssRNA)
# RNA: GGGAGUUCUACAGUCCGACGAUCCUUUCUCCAUGUCAUGUAGAAGACAGGAGGGGGUCUUGUCCCAUCUGACCAUACUCGGAGAACAUAAGCAUAAAGAACACACAGCAAUACCCCAAACCACCCCCAAGUCUGUAUGGACUGCAACAGAGGAUUGAGCAUCA
# B22: chr1:244855233:244855234:+_ENSG00000121644_ENST00000302550|hu_mus|hu_hu_hu_mus_True|58_58 (ssRNA)
# RNA: GGGAGUUCUACAGUCCGACGAUCCAUCAGAUGGUAGGCGUUGCCCUUAUACUCUUUCCCCAGUUCUUCUACAAUUUUUUCUAUAUCAUCUUCUAGAAAGUCCGUACUUCCUAGAACAACAGCUUCUUUAAAUUUAAAUGUUUCCAACAGAGGAUUGAGCAUCA
# Molecular target: T1, UNK ZnF1-3
# Experiment: nsRBNS (natural sequence RNA bind-n-seq); RBNS binding buffer (assumed for nsRBNS): 25 mM Tris pH 7.5, 150 mM KCl, 3 mM MgCl2, 0.01% Triton X-100, 500 ug/ml BSA, 20 U/ml SUPERase-In, 4 C; UNK is unkempt and MSI1 is Musashi-1; names of the RNAs are library labels; protein concentration not given here; high values mean tight binding
row,Binder,binding signal
1,B1,0.843 enrichment R
2,B2,1.1 enrichment R
3,B3,1.01 enrichment R
4,B4,1.51 enrichment R
5,B5,0.634 enrichment R
6,B6,0.663 enrichment R
7,B7,2.23 enrichment R
8,B8,1.6 enrichment R
9,B9,1.62 enrichment R
10,B10,1.7 enrichment R
11,B11,0.681 enrichment R
12,B12,1.07 enrichment R
13,B13,0.635 enrichment R
14,B14,0.378 enrichment R
15,B15,0.788 enrichment R
16,B16,0.858 enrichment R
17,B17,0.471 enrichment R
18,B18,0.435 enrichment R
19,B19,1.34 enrichment R
20,B20,0.575 enrichment R
21,B21,1.71 enrichment R
22,B22,1.56 enrichment R
